Reference: PubChem BioAssay AID504706 (National Center for Advancing Translational Sciences (NCATS), 2011)
The whole screen tested about 320,000 compounds, of which about 200 (0.062%) were called active. This list was built around the results that the source calls inconclusive (neither active nor inactive); the mix of calls is not that of the screen. Calls follow the shape of the dose curve; as a rule, active = well fitted activation curve with a large enough effect; inconclusive = small, poorly fitted or top-dose-only effect; inactive = no such curve, though single readings can be large or run the other way. Potencies of inconclusive entries are left out as doubtful fits.

Experiment: qHTS assay for re-activators of p53 using a Luc reporter; also: nearly all actives have a fitted effect of over 45% in size
Conditions: H1299 p53-A138V BP100-luciferase reporter, luminescence, 24 h; series mostly up to 92.2 µM
How it was run: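 H1299 (p53-null), stable ts p53-A138V + BP100-Luc; 1000 cells/well, Opti-MEM/10% FBS; cpd 4 pt, 1:5; 24 h, 37 deg C, 5% CO2; detection reagent 10 min RT; luminescence.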
Potency is read from the fitted curve at half-maximal effect; tags tell the direction and shape of the fitted curve.

Row | SMILES | Potency
1 | Cc1sc2nc(-c3cccnc3)nc(Cl)c2c1-c1ccccc1 | inactive
2 | CCC(=O)Nc1ccc(NC(=O)C23CC4CC(CC(C4)C2)C3)cn1 | inconclusive [activator, single point]
3 | Cc1cc(NC(=O)c2ccccc2)n(-c2nc3ccccc3[nH]2)n1 | inactive
4 | CC(=O)Nc1cccc(NC(=O)COc2ccc3c(c2)OCO3)c1 | inconclusive [activator, partial curve, poor fit]
5 | O=c1c2c(nc(NCCO)n1CC1CCCCC1)-c1ccccc1CC21CCCC1 | inactive
6 | COc1ccc(C(=O)Nc2ccc(C(F)(F)F)n(C)c2=O)cc1 | inconclusive [activator, partial curve, poor fit]
7 | C#CCOCCOCCOCCNc1nc(N2CCN(C(=O)CCCCCCCCCCNC(=O)[C@@H](CCC(=O)O)n3cc(CCCCCN)nn3)CC2)nc(N2CCN(C(=O)CCCCCCCCCCNC(=O)[C@H](CO)n3cc(CCCCCN)nn3)CC2)n1 | inconclusive [activator, single point]
8 | CC[C@]12c3[nH]c4ccc(Cl)cc4c3CCN1C(=O)[C@@H](CC(=O)NCc1cccc(C(F)(F)F)c1)C[C@@H]2C(=O)N1CCN(C(=O)c2ccco2)CC1 | inactive
9 | O=C(Nc1nc2ccccc2[nH]1)C12CC3CC(CC(C3)C1)C2 | inconclusive [activator, partial curve, poor fit]
10 | COc1ccc(-c2coc3cc(O[C@@H]4O[C@H](CO)[C@@H](O)[C@H](O)[C@H]4O)ccc3c2=O)cc1 | inconclusive [activator, partial curve, poor fit]
11 | COc1cc(/C=C(\C#N)c2nc3ccccc3[nH]2)ccc1Oc1ccc([N+](=O)[O-])cn1 | inconclusive [activator, partial curve, poor fit]
12 | c1ccc2c(c1)NC1(CCCCC1)n1c-2nc2ccccc21 | inconclusive [activator, full curve, poor fit]
13 | CC(=O)OCCn1c2nc(=O)[nH]c(=O)c-2nc2cc(C)c(C)cc21 | inactive
14 | N#C/C(=N\Nc1cccc(F)c1)C(=N)N1CCCCCC1 | inconclusive [activator, partial curve, poor fit]
15 | Cc1cccc(N=Cc2cc(Br)cc(Cl)c2O)c1 | inconclusive [activator, partial curve, poor fit]
16 | Cc1ccc(O)c(C2=Nc3ccccc3C2(C)C)c1 | inconclusive [activator, partial curve, poor fit]
17 | CCOC(=O)c1cccc(C(=O)Oc2ccccc2)n1 | inactive
18 | Cc1ccnc(NC(=S)NC(=O)c2cncc(Br)c2)c1 | inconclusive [activator, full curve]
19 | CCn1ccc(=N)cc1 | inconclusive [activator, single point]
20 | O=C(Cc1ccc(F)cc1)N/N=C/c1ccc(-c2ccc(Cl)c(C(=O)O)c2)o1 | inactive
21 | COc1cc(/C=C2\NC(=S)NC2=O)ccc1OCc1cccc(C(=O)O)c1 | inconclusive [activator, partial curve, poor fit]
22 | CCCCC1(C)Nc2ccccc2-c2nc3ccccc3n21 (stereo unspecified) | inconclusive [activator, partial curve, poor fit]

Row | SMILES | Potency
23 | CCOc1ccc2[nH]c(=O)c(C(c3nnnn3Cc3ccco3)N3CCCC(C)C3)cc2c1 (stereo unspecified) | inactive
24 | Cc1ccc(NS(=O)(=O)c2ccc(N/N=C/c3ccncc3)c([N+](=O)[O-])c2)c(C)c1 | inactive
25 | Cn1c(=O)c(C(=O)Nc2ccccn2)c(O)c2ccccc21 | inconclusive [activator, partial curve, poor fit]
26 | C/C(=N\NC(=S)NCCc1ccccc1)c1ccc(C#N)cc1 | inactive
27 | COc1cccc(OCc2cc(C(=O)N(C)Cc3nccn3C)no2)c1 | inconclusive [activator, partial curve, poor fit]
28 | Cn1c(=O)c2c([nH]c(=S)n2CCCc2ccccc2)n(C)c1=O | inconclusive [activator, single point]
29 | Cc1ccccc1-c1nnc(SCC(=O)Nc2cccnc2Cl)o1 | inconclusive [activator, partial curve, poor fit]
30 | CC(C)c1onc(C(=O)Nc2cccc(O)c2)c1[N+](=O)[O-] | inconclusive [activator, partial curve, poor fit]
31 | CC1(C)Cc2c(cnn2-c2ccc(F)cc2)C(NC(=O)c2ccoc2)C1 (stereo unspecified) | inactive
32 | N=c1scc(-c2ccccc2)n1/N=C/c1ccco1 | inconclusive [activator, full curve, poor fit]
33 | CCN1CCN(CCCOc2ccc(-c3ccccc3)cc2)CC1 | inconclusive [activator, single point]
34 | COC(=O)C1C(=O)C2=C(CC1C)NC(=O)CC2c1ccc(F)cc1 (stereo unspecified) | inactive
35 | CC(C)c1cc(C(=O)NC2CCCCC2)no1 | inconclusive [activator, full curve, poor fit]
36 | CC(=O)Cc1nsc(NC(=O)c2ccccc2Cl)n1 | inactive
37 | CN(CCCN1CCCCC1)C(=O)c1cc(COc2ccc(F)cc2F)on1 | inconclusive [activator, single point]
38 | O=C(COC(=O)c1ccc(CO)cc1)NCc1cccs1 | inconclusive [activator, single point]
39 | N#C/C(=C(/O)COC(=O)Cc1c[nH]c2ccccc12)c1nc2ccccc2[nH]1 | inconclusive [activator, partial curve, poor fit]
40 | Clc1ccc(-c2nnc(C3CCCCC3)o2)cc1 | inconclusive [activator, single point]
41 | CCN(CC)CCN(C(=O)C1=COCCO1)c1nc2cc(C)cc(C)c2s1 | inconclusive [activator, partial curve, poor fit]
42 | c1ccc2c(CCNc3ncnc4nc[nH]c34)c[nH]c2c1 | inconclusive [activator, partial curve, poor fit]
43 | COc1ccccc1C1CCN(c2cc(O)ccc2[N+](=O)[O-])CC1 | inactive
44 | CCCCCOC(=O)Nc1nnc(CCC)s1 | inconclusive [activator, partial curve, poor fit]

Row | SMILES | Potency
45 | O=C(NN=C1CCCC1)c1ccn[nH]1 | inconclusive [activator, partial curve, poor fit]
46 | CC(C)(O)C#Cc1ccc(C(=O)Nc2ccc3c(c2)OCO3)s1 | inconclusive [activator, partial curve, poor fit]
47 | Nc1nn2cc(-c3ccccc3)nc2c2ccccc12 | inconclusive [activator, partial curve, poor fit]
48 | Cc1ccccc1OCC(=O)Nc1ccc(N2CCN(C)CC2)c(Cl)c1 | inconclusive [activator, partial curve, poor fit]
49 | CC(C)(C)c1ccc(NC(=O)COC(=O)C2CCCC2)cc1 | inconclusive [activator, partial curve, poor fit]
50 | CC(C)CCNC(=O)CSc1nc2ccsc2c(=O)n1NC(=O)c1ccccc1 | inconclusive [activator, single point]
51 | O=[N+]([O-])c1cc(C(F)(F)F)ccc1NCCc1c[nH]c2ccccc12 | active: 39.8 µM
52 | COc1cccc(-c2csc(NC(=O)C3CC3)n2)c1 | inconclusive [activator, full curve, poor fit]
53 | Cc1ccc(-c2ccc(CCC(=O)O)n2Cc2ccco2)cc1 | inactive
54 | Cc1ccnc(NC(=O)c2ccc3c(c2)C(=O)N(CCC(C)C)C3=O)c1 | inconclusive [activator, partial curve, poor fit]
55 | Cc1cc(-c2cn3ccccc3n2)c(C)n1-c1ccccc1 | inactive
56 | CC(=O)N1CSCC1C(=O)N1CCN(c2ccc(N3CCOCC3)nn2)CC1 (stereo unspecified) | inconclusive [activator, partial curve, poor fit]
57 | CCOc1ccccc1-n1c(SCC(=O)Nc2ccccc2C(=O)O)nc2ccccc2c1=O | inconclusive [activator, partial curve, poor fit]
58 | Cc1c(C)c2ccc(OCC(=O)Nc3ccccn3)c(C)c2oc1=O | inactive
59 | CC1CCc2sc3nc(NCc4ccco4)n4ncnc4c3c2C1 (stereo unspecified) | inconclusive [activator, partial curve]
60 | CCCN(CCC)CCSc1nc(O)c(C(C)C)c(=O)[nH]1 | inconclusive [activator, single point]
61 | CC1(C)COC(c2coc3ccccc3c2=O)OC1 | inconclusive [activator, partial curve, poor fit]
62 | CCOc1ccc(N(CC(=O)NC2CCCCCC2)S(=O)(=O)c2ccccc2)cc1 | inconclusive [activator, single point]
63 | CC(=O)N1CCSc2ccc(S(=O)(=O)Nc3cccc(C)c3)cc21 | inactive
64 | COc1ccc2oc(C(=O)Nc3ccccn3)c(C)c2c1 | inconclusive [activator, partial curve, poor fit]
65 | O=C(NCCCN1CCOCC1)c1cccc(NS(=O)(=O)c2ccc(Br)cc2)c1 | inactive
66 | Cc1ccc(NC(=O)Nc2ccc3c(c2)nc(C)n3C)cc1 | inactive
